Measurements from the supplement of paper PMC3334620.
Whole data set: some 33,000 sequences, median “E-score (-0.5 to 0.5)” near -0.01, cut for the highest 2% near 0.26. Some of the results follow.

What follows are sequences tested against Ste12 (UniProt P13574) (assay: PBM E-score (8-mer binding enrichment) (E-score (-0.5 to 0.5)); higher = stronger / more preferred TF binding; most listed sequences are background and not binding sites). Settings: protein concentration: 200 nM; construct: GST-DNA-binding domain.
Protocol: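 Universal 'all 10-mer' protein binding microarrays (Agilent AMADID 015681) probed with GST-tagged S. cerevisiae TFs (full-length or DBD) made by in vitro transcription/translation (PURExpress), about 100-200 nM. Bound TF was detected with fluorescent anti-GST. Each ungapped 8-mer (which stands for itself and its reverse complement) is scored by the PBM enrichment score (E-score), a modified Wilcoxon-Mann-Whitney statistic from -0.5 to +0.5, computed with the Universal PBM Analysis Suite. Scale: above 0.35 generally sequence-specific binding.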

Sequence	PBM E-score
GAGCGTCC	-0.0691
AATGGACG	0.0787
TCGGAACA	0.143
GGGGCTGA	-0.185
ACTCCTAG	-0.132
ATGACACC	0.0248
AACGGCGA	0.125
GGGCATCA	-0.0616
CTGATGTC	-0.0261
ACTGAACC	-0.0598
AGCTCCGC	-0.173
AACAAGAC	0.09
ACTAACGC	-0.0491
CGGTACAC	-0.166
GACTGATA	-0.0649
ATTCTTCA	0.00905
AATGGTGC	-0.0499
AGGGGGGA	-0.0599
CACTGGGA	-0.147
TAGTTCCA	0.0743
AATATCTG	0.00966
ATTGCTGC	-0.00539
CAACCCTC	-0.125
GGTTAACA	0.25
CCCGGCTA	-0.064

Sequence	PBM E-score
CGGAGTCA	-0.129
AGTATAAC	-0.185
CAGGGCCG	-0.107
GAATCCCA	0.0202
TCGTTCAA	0.0118
CTATTAAA	0.219
CCTGGCAC	-0.0664
AATTAGTG	0.235
TATCCCGA	0.0563
CAGGTCTC	0.0453
ATTGTCCA	0.033
AACAATTC	0.124
AGGTTTAG	0.0936
CAAAAAGC	0.21
CGCGCGGC	0.306
ATCTTAAC	0.169
AGCATTCG	-0.195
CTAGAAGC	-0.0402
CCAGTAGA	-0.0672
ATCATAAC	0.112
GGATCTTA	0.0306
AGTAGAAC	-0.0785
ACAGATTA	-0.0787
AGGATGCC	-0.203
AGAAGCTG	-0.0487

Sequence	PBM E-score
ACCTTAGA	-0.118
TACAGACA	0.0984
CCTTCCGA	-0.115
GGTTTTAC	0.00234
TGACGACA	0.0522
CCCGCGCA	0.0184
CCACCGCA	0.0392
TACATTCA	0.122
GCAGCATA	-0.0208
ACGCAAAA	0.0901
CCCCTACA	-0.142
AGTTTCAT	0.428
AACAAAGC	0.294
ATCCTCAG	0.0112
CGCCTCGA	0.106
CATAACCG	0.0365
CCCCGGCC	-0.0295
ATCTTGTG	-0.07
AAGGAAGT	-0.0799
ACTCGTCC	-0.109
GAGCACAA	-0.0284
CATGCGAC	0.145
CAAATTTA	0.217
GCAAGCAA	-0.0907
AATTGGAG	-0.0419

Sequence	PBM E-score
CCGCCGCC	0.164
GAAAAGCA	0.0143
CACCAGAC	0.0132
CTTCGAAG	-0.063
GATCGTGC	0.0893
ATGCTTAC	-0.0145
AACGGTAG	-0.113
GCACTGGC	-0.224
ACATTCCC	0.119
GACGAAAC	0.222
TATTCAAA	0.239
AGTGTGGA	-0.172
ATTCGACG	0.087
ATACCCAC	-0.0583
GGTGCGCA	0.232
ACTATGGC	-0.0292
AGGTTTGC	-0.147
ACTTGGAG	-0.0815
AGTCGACT	0.186
ACAGATGT	-0.0044
GCGCGCGA	0.154
CCTCTATC	-0.159
AAGCGGTA	0.0316
ACGCGAGG	-0.0654
AAGATAAA	0.214

Sequence	PBM E-score
AGTGTCAT	0.168
AGGACCGA	-0.0176
CAGCGTGA	-0.204
AGGATTTA	0.103
ATGTTTAG	0.214
TCTCCCAA	0.102
GCTTCACC	-0.188
CTCATCAG	0.147
CAGTATCA	0.0753
ATGCCACG	-0.0606
GTCAGCTA	-0.21
GTATGGCA	-0.00895
ATTAACAG	0.0374
ATATTGTG	0.107
CAGTTCAC	-0.152
AGAGGCAC	-0.183
CACACAAA	0.122
GTGCGCGA	0.159
GCAGTGCA	-0.0828
ACCACGGA	-0.116
TAACTGAA	0.0993
ACTTTTCG	0.241
TTAGAAAA	0.175
CTGAGCTA	-0.264
CACTTGTA	0.0115

Sequence	PBM E-score
AGGTACGG	-0.229
ACAGGCGG	-0.128
CAGAGTAG	0.0106
ATGACATG	-0.232
ACGGCTGG	-0.171
CGCTGATA	-0.0639
TAAATATA	0.321
ACTGGCCT	-0.0483
GCTTGGCA	-0.277
CTTCGAGA	-0.11
GTCAAAAA	0.233
AAAGTGAC	-0.00668
CCTAGTCA	-0.0514
ACGACAAG	0.0764
GACAGTCC	-0.183
AATATACC	0.212
ACCATACC	-0.0304
CCCAGAGA	-0.0416
CATGTGTC	0.0145
CGACCTCA	-0.124
CCCTACGA	-0.0392
ACGAGGAG	-0.0506
AAGTGGGC	-0.0304
AAAAGTTT	0.283
ATCAGCAT	0.0807

Sequence	PBM E-score
ATGAACCA	0.173
CCCTAACC	0.0973
TATGCTGA	0.14
ACTGCAAA	0.0632
CCGTGGAA	0.191
CCTGGCAG	-0.103
ACTTATCG	0.0899
CCGGTTCC	-0.0853
CGAGCCCG	-0.0148
TGCGAGAA	0.0173
CCTACTAA	0.0824
CAACATTA	0.0846
ATACCAAG	0.235
ACGTCGAC	-0.0338
ACCACTCT	-0.189
CTGCCCAC	-0.193
GCATAAGC	0.122
ACTCCTAC	-0.124
AGACTCGG	-0.179
GGTGGCGA	-0.0597
CACATACC	-0.22
GAACTTAC	-0.107
